PubChem BioAssay AID1346428 (National Center for Advancing Translational Sciences (NCATS), 2018)
Where “and” joins values, the source holds several entries; their conditions need not be identical. Identical values can stand only once. Hit rate of the full screen: of about 48,000 compounds, about 1,200 (2.5%) were called active. About 2% were inconclusive and are not listed.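 The calls were made as follows: active = activation of at least 60% and not above a set upper limit (about 1 call in 100 departs from these limits); inconclusive = activation of 40% to 60%, or above that upper limit; inactive = activation under 40%.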 The list shows a part of the results.

Target: Probable G-protein coupled receptor 32 (Homo sapiens) (UniProt O75388)
Assay: qHTS for Agonists of Human Resolvin D1 Receptor DRV1; also: 0% is about no effect
Conditions: CHO-K1 GPR32 beta-arrestin PathHunter luminescence, 90 min; at 76.9 µM; stronger effect = higher value; zero percent set by DMSO-only wells
In short: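 Luminescent readout of beta-Gal complementation quantifies ligand-induced beta-arrestin association with GPR32 in CHO-K1 cells; 90 min compound incubation at 37 °C, detection 1 h at room temperature.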

Chain of UniProt O75388 (O75388 whole entry, looked up): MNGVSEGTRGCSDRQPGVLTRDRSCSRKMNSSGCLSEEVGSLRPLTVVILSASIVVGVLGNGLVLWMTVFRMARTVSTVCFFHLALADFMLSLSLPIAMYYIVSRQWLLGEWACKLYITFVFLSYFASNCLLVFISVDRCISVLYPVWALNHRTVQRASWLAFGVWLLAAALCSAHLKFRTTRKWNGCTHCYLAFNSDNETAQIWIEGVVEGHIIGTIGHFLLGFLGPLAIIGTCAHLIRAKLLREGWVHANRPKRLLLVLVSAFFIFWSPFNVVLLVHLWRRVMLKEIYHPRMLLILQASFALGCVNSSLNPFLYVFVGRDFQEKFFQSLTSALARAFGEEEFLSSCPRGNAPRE

activation, inactive:
O=C(NCCc1csc(-c2ccc(F)cc2)n1)c1cccs1 24.1%
O=C(NC1CC(=O)N(c2ccc3c(c2)OCCO3)C1)c1c(F)cccc1Cl (stereo unspecified) 0.14%
COc1ccc(NC(=O)Cn2c(=O)cc(C)c3c(C)nn(-c4cccc(Cl)c4C)c32)cc1OC -11.5%
CC(C)Oc1ccc2c(=O)c(-c3ccccc3)coc2c1 34.9% and 14.5%
Cc1ccc2c(c1)c(=O)c(C(=O)c1ccc3c(c1)OCO3)cn2Cc1cccc(F)c1 -22%
COCCNc1oc(-c2ccc(COc3ccc(OC)cc3)o2)nc1C#N -10.9%
Cc1ccc(NC(=O)CSc2nc3ccccc3c3nc(CCc4c(C)n[nH]c4C)nn23)c(C)c1 -19.6%
Cc1ccc(-c2nn(-c3ccc(F)cc3F)c3c2cnc2c(F)cccc23)cc1 -11.1%
Cc1ccccc1C(=O)Nc1nc2nc(C)c(C)c(=O)n2[nH]1 8.6%
CCCc1nn2c(=O)cc(COC(=O)c3ccc(NC(=O)CCc4ccccc4)cc3)nc2s1 -17.4%
Cc1nc2c(C(=O)O)cnn2c(C)c1Cc1ccccc1 10.1%
CCc1ccc2oc(-c3cccc(NC(=O)c4cc5ccccc5o4)c3)nc2c1 1.19%
Cc1ccc2nc(N3CCN(c4cccc(Cl)c4)CC3)c3nnnn3c2c1 6.25%
Cc1ccc(C(=O)CSc2ncc3c(n2)-c2ccccc2N(Cc2ccc(Cl)cc2)S3(=O)=O)cc1 0.957%
CC(=O)Nc1nnc(S(N)(=O)=O)s1 -15.5% and 2.8%
CCCCOc1ccc(CNC(=O)c2ccc(-c3nc(CN4CCc5ccccc54)c(C)o3)cc2)cc1 -0.679%
Cc1cc2cc3c(C)cc(=O)oc3c(C)c2o1 -18.3%
COc1cccc(NC(=O)c2sc3nc4n(c(=O)c3c2C)CCC4)c1 -0.378%
CCn1cc2nc(SCC(=O)Nc3ccccc3F)n(Cc3ccc(C)cc3)c(=O)c2n1 -5.47%
COc1ccc(-c2cc3nc(C)c(CCC(=O)Nc4cccc(C(F)(F)F)c4)c(C)n3n2)c(OC)c1 13.7%
CCc1ccc(-c2nc(CN3CCCC(C(=O)NCc4ccc(C)cc4)C3)c(C)o2)cc1 (stereo unspecified) 37.2%
CN1CCN(N)CC1 -2.7%
Cc1ccc(CNC(=O)Nc2cn(CC(C)C)c(=O)c3ccccc23)cc1 -53.7%
Cc1ccnc(NC(=O)c2c(C)oc3ncn(CC(C)C)c(=O)c23)c1 -12.7%
O=C(NCCCN1CCN(c2ccccc2F)CC1)c1cc2c(Cl)nc3ccccc3c2s1 6.6%
Clc1ccc2nsnc2c1NC1=NCCN1 -1.97% and 7.34%
Cc1cc(C)c(NC(=O)CN2c3ccccc3S(=O)(=O)c3ccccc32)c(C)c1 -9.22%
CN(C(=O)Cn1cc(S(=O)(=O)N2CCN(c3ccccc3F)CC2)c2ccccc2c1=O)c1ccc(Cl)cc1 -3.18%
COCC(C)NC(=O)c1cnn2c(C(F)F)cc(-c3ccccc3)nc12 (stereo unspecified) 7.12%
CC(=O)c1ccc(NC(=O)c2cc(-c3ccc4c(c3)OCO4)on2)cc1 6.25%
Cc1nnc(SCc2ccccc2Cl)c2cc3sccc3n12 -11.2%
O=C(Nc1sc2c(c1C(=O)Nc1ccc(Cl)cc1)CCCC2)c1cccs1 5.06%
CCCCCOc1ccc(NC(=O)Cc2csc(C)n2)cc1 -13.8%
Cc1ccc(C(=O)Nc2ccccc2C(=O)O)cc1S(=O)(=O)N1CCCCCC1 42.8%
CN1CCN(CCCNC(=O)Cn2c(-c3cccs3)cc3cc(Cl)ccc32)CC1 17.2%
Cc1ccc(CN2COc3cc(C)c4c(oc(=O)c5ccccc54)c3C2)cc1 -15.3%
COc1cc(OC)c(NC(=O)C(NS(=O)(=O)c2cccc3nsnc23)c2ccccc2)cc1Cl (stereo unspecified) -27.2%
CCOc1ccc(NC(=O)c2cnn(-c3ccc(C)c(Cl)c3)c2C2CCNCC2)cc1 5.79%
Cc1ccc2[nH]c(C(=O)Nc3ccccc3)cc2c1 -1.18%
COc1ccc(-c2[nH]c(-c3ccccc3)nc2SCC(=O)Nc2ccc3c(c2)OCCO3)cc1 -5.73%
CCOc1cc(C2NC(=O)c3c(sc4c3CCN(C)C4)N2)ccc1OC(=O)c1ccccc1Cl (stereo unspecified) 6.25%
COc1ccc(CCNC(=O)Cn2c(=O)c3cccn3c3ccc(F)cc32)c(OC)c1 -20.7%
Cc1ccc(C)c(-c2nnc(NC(=O)c3ccc4c(c3)OCCO4)o2)c1 -28.6%
CC(=O)Nc1ccc(Nc2nc3c(S(=O)(=O)c4cccc(Cl)c4)nnn3c3ccsc23)cc1 -5.38%
CCN(CC)Cc1c(NC(=O)c2ccc(OC)cc2)sc2c1CCCC2 -29.1%
Cc1cc(C)cc(-n2c(C)nc3cc(C(=O)NCc4ccccc4Cl)ccc32)c1 -12%
COc1cccc(C(=O)Nc2ccc(-n3nncc3-c3ccccc3)cc2)c1 -16%
Cc1ccc(NC(=O)CN2C(=O)CCc3cc(S(=O)(=O)N4CCCCC4)ccc32)cc1C 8.73%
COc1ccc(-c2cc(C(=O)Oc3cccc(C)c3)c3cc(C)ccc3n2)cc1 14.9%
COc1ccc(CCNC(=O)c2cnc3sc(N4CCCCC4)nn3c2=O)cc1OC 3.62%
Cc1oc2ncn(CC(C)C)c(=O)c2c1C(=O)NCCCN1CCC(C)CC1 -12.5%
O=C(COc1ccccc1F)OCc1cc(=O)n2nc(C3CC3)sc2n1 26.5%
Cc1ccc(NC(=O)c2cc3c(=O)n(Cc4ccco4)ccc3nc2C)cc1C -20.4%
Cc1ccc(CN(C(=O)COc2ccc(Cl)cc2C)C2CCS(=O)(=O)C2)o1 (stereo unspecified) -20.6%
CCOC(=O)c1c(NC(=O)c2cc(CC(C)C)on2)sc(C(C)=O)c1C -0.797%
CC[C@@H](C)[C@@H](C(=O)Nc1ccc(C)cc1)N1Cc2ccccc2C1=O -2.1%
CCCn1c(=O)c2c(nc3n2CCN3c2ccc(C)cc2)n(C)c1=O -10.5%
Cc1nc2sc(C(=O)N(C)c3ccccc3)c(NC(=O)c3ccccc3Cl)c2c(C)c1C -11.3%
CSc1ccc(C2c3c(oc4cc(C)cc(C)c4c3=O)C(=O)N2CCO)cc1 (stereo unspecified) -10.8%
CCN(CC)C(=O)C1CN2CCc3cc(OC)c(OC)cc3C2CC1OC(C)=O (stereo unspecified) -14.3%
Cc1ccc(NC(=O)c2c(C)oc3ccc(O)c(CN4CCOCC4)c23)c(C)c1 -1.99%
COc1ccc(C2C(C(=O)Nc3ccccc3OC)=C(C)Nc3c(C(=O)Nc4ccccc4)cnn32)c(OC)c1 (stereo unspecified) -16.3%
CCOc1ccc(NC(=O)N(Cc2c[nH]c3ccccc23)C2CCCCCC2)cc1 -28.6%
COc1cn(CC(=O)Nc2ccccc2)c(CN2CCCCC2)cc1=O -4.53%
CC(C)CCNC(=O)CCn1c(=O)c2cccn2c2cccnc21 2.37%
Cc1ccc(OCC(=O)N(Cc2ccco2)Cc2ccco2)cc1C -18.1%
CC1=C(C(N)=O)C(c2ccc(C)cc2)n2nc(SCc3ccccc3F)nc2N1 (stereo unspecified) 22.1%
CCOC(=O)c1cccc(NC(=O)c2cc(S(=O)(=O)N3CCCC(C)C3)cn2C)c1 (stereo unspecified) -1.95%
CC(=O)Nc1ccccc1-c1nc2ccccc2n(CC(=O)c2ccc(Br)cc2)c1=O -1.94%
Cc1cc(C)cc(NC2=C(c3ccccc3)C(=O)c3ccccc32)c1 -39.2%
COc1cc(C2C(=O)N(C3CCCCC3)CC(=O)N2CCC2=CCCCC2)ccc1OC(C)C (stereo unspecified) -16.1%
COc1cccc(CNC(=O)CSc2nnc(C)c3c(C)n(-c4ccccc4)nc23)c1OC -5.71%
CCOC(=O)C1CCCN(C(=O)Cn2ncc3c(C)n(Cc4ccccc4F)c(C)c3c2=O)C1 (stereo unspecified) -4.64%
COc1cccc(-n2cc(C(=O)Nc3cc(OC)c(OC)c(OC)c3)c3ccccc3c2=O)c1 -19.4%
COC(=O)CNC(c1ccccc1)c1cc(Br)ccc1NC(=O)c1ccccc1 (stereo unspecified) -6.62%
CCc1cccc(C)c1NC(=O)C1CCN(c2nn3c(=O)cc(C)nc3s2)CC1 14.7%
COc1ccc(-c2cc(C(F)(F)F)nc(SCC(=O)N3CCCCC3C)n2)cc1OC (stereo unspecified) -3.54%
N#CSCC(=O)O 15.3%
Cc1onc(-c2c(F)cccc2Cl)c1C(=O)Nc1ccc(OC(C)C)cc1 -8.16%
Cc1ccc2oc(=O)c3cc(C(=O)Nc4ccccc4C(N)=O)sc3c2c1 -2.23%
CCOCCCn1c(=N)c(C(=O)NCc2cccnc2)cc2c(=O)n3cc(C)ccc3nc21 9.66%
CCOC(=O)c1cnc2c(ccc3ccccc32)c1Nc1ccc(OCC)cc1 -22.9%
COc1ccc(S(=O)(=O)c2c(O)c3ccc(C(=O)NCc4ccccc4)cc3[nH]c2=O)cc1 10.9%
COc1ccc(CCNC(=O)c2cc3c(s2)-c2ccccc2OC3)cc1OC -7.72%
Fc1ccc(N2CCN(c3ncnc4c3nc3n4CCCCC3)CC2)cc1 22.5%
Cc1cccc(NC(=O)Nc2ccc(Br)cc2)n1 0.452%
